The results in this text go back to article PMC9369162, “Substrates of the Human Brain Proton-Organic Cation Antiporter and Comparison with Organic Cation Transporter 1 Activities” (International Journal of Molecular Sciences, 2022).

Each structure is given as a SMILES string. “And” between values parts separate entries of the source, which are not always exact repeats. Equal values may be shown once. A value given as a limit tells only on which side of the number the result lay.

In data set [1] the test system is H + OC antiporter. Kind of data set: Concentration-dependent uptake into hCMEC/D3 cells (transport kinetics). To be noted: for Km / Vmax / KM: 2 min uptake, after subtraction of linear passive-diffusion component; for Km / KM: 0.1–1000 µM; for Intrinsic Clearance: ratio of Vmax over KM.
In data set [2] the test system is H + OC antiporter. Kind of data set: Trans-stimulation (antiport) with diphenhydramine as probe substrate in hCMEC/D3 cells. Type of data set: cell-based, human. As to conditions: intracellular diphenhydramine after 2 min incubation with substrate over without substrate.
The test system of data set [3] is H + OC antiporter. Briefly: Trans-stimulation (antiport) with MDAI as probe substrate in hCMEC/D3 cells. Type of data set: cell-based, human. As to conditions: intracellular MDAI after 2 min incubation with substrate over without substrate.
In data set [4] the test system is H + OC antiporter. Kind of data set: Cis-inhibition of substrate uptake into hCMEC/D3 cells by diphenhydramine, imipramine or memantine.

The term Km denotes the concentration of substrate that gives half-maximal velocity. Consider `CC12CC3CC(C)(C1)CC(N)(C3)C2` [Memantine], for which, in the data set on H + OC antiporter [1], the Km came out at 28.7 µM and the Vmax is given as 1002 pmol × mg Protein^−1 × min^−1. In the data set with H + OC antiporter [1] (listed as memantine), the Km was 29 µM and < 30 µM.

As to `COc1ccc2c3c1O[C@H]1C(=O)CC[C@@]4(O)[C@@H](C2)N(C)CC[C@]314` [Oxycodone], in the data set with H + OC antiporter [1], the Km worked out at 71.4 µM and the Vmax is 1900 pmol × mg Protein^−1 × min^−1.

`Cn1c(=O)c2[nH]cnc2n(C)c1=O` [Theophyllin]: the “DPH Antiport Ratio” value in the data set on H + OC antiporter [2] is 0.90. Besides, the “MDAI Antiport Ratio” value with H + OC antiporter [3] came to 0.86.

Take `CC(C)(C)NCC(O)c1cc(Cl)c(N)c(Cl)c1` (centres unmarked) [Clenbuterol]: in the data set with H + OC antiporter [1], the Km turned out to be 51.1 µM and the Vmax is given as 1412 pmol × mg Protein^−1 × min^−1.

Take `COc1ccccc1N1CCN(CCCNc2cc(=O)n(C)c(=O)n2C)CC1` [Urapidil]: in the data set on H + OC antiporter [1], the Km was determined as 82.5 µM and the Vmax is reported as 1305 pmol × mg Protein^−1 × min^−1.

On to `CNCCC(Oc1ccc(C(F)(F)F)cc1)c1ccccc1` (centres unmarked) [Fluoxetine], for which, in the data set on H + OC antiporter [1], the Km was found to be 80.2 µM and the Vmax is given as 5070 pmol × mg Protein^−1 × min^−1.

For `CN(C)CCC=C1c2ccccc2COc2ccccc21` [Doxepin], in the data set on H + OC antiporter [1], the Km was determined as 36.3 µM and the Vmax was 2661 pmol × mg Protein^−1 × min^−1.

In the case of `COC(=O)C(c1ccccc1)C1CCCCN1` (centres unmarked) [Methylphenidate], in the data set on H + OC antiporter [1], the Km came to 78.9 µM and the Vmax is 1142 pmol × mg Protein^−1 × min^−1.

As to `Nc1nc2c(ncn2COCCO)c(=O)[nH]1` [Acyclovir], in the data set with H + OC antiporter [2], the “DPH Antiport Ratio” value is reported as 0.87. The “MDAI Antiport Ratio” value in the data set with H + OC antiporter [3] is 0.94.

Regarding `CCN(CC)CCNC(=O)c1cc(Cl)c(N)cc1OC` [Metoclopramide], in the data set with H + OC antiporter [1], the Km came to 118 µM and the Vmax is given as 1671 pmol × mg Protein^−1 × min^−1.

Take `CNC1(c2ccccc2Cl)CCCCC1=O` (centres unmarked) [Ketamine]: in the data set on H + OC antiporter [2], the “DPH Antiport Ratio” value was determined as 0.36.

In the case of `COc1ccc2c3c1O[C@H]1[C@@H](O)CC[C@H]4[C@@H](C2)N(C)CC[C@@]341` [Dihydrocodeine], the “DPH Antiport Ratio” value in the data set on H + OC antiporter [2] stood at 0.52. Besides, the “MDAI Antiport Ratio” value in the data set with H + OC antiporter [3] is given as 0.87.

In the case of `CCOC(=O)C1(c2ccccc2)CCC=CC1N(C)C` (centres unmarked) [Tilidine], the “DPH Antiport Ratio” value with H + OC antiporter [2] is recorded as 0.54. In the data set with H + OC antiporter [3], the “MDAI Antiport Ratio” value was found to be 0.80.

As to `COCCc1ccc(OCC(O)CNC(C)C)cc1` (centres unmarked) [Metoprolol], in the data set on H + OC antiporter [1], the KM entry is reported as “Only linear component of uptake observed”, the Vmax result was “Only linear component of uptake observed” and the “Intrinsic Clearance” value was “Only linear component of uptake observed”.

On to `NC(=O)c1cnccn1` [Pyrazinamide], for which the “inhibition of uptake by the three inhibitors (diphenhydramine, imipramine, memantine)” value in the data set on H + OC antiporter [4] is on record as “not inhibited by the three inhibitors”. Besides, in the data set with H + OC antiporter [1], the KM result was “Only linear component of uptake observed”, the Vmax result is given as “Only linear component of uptake observed” and the “Intrinsic Clearance” value is given as “Only linear component of uptake observed”.

Consider `CN(C)CCc1c[nH]c2ccc(C[C@H]3COC(=O)N3)cc12` [Zolmitriptan], for which the “DPH Antiport Ratio” value with H + OC antiporter [2] came to 1.03. Moreover, in the data set with H + OC antiporter [3], the “MDAI Antiport Ratio” value is listed as 1.45.

As for `COc1cc(OC)c(C(=O)CCCN2CCCC2)c(OC)c1` [Buflomedil], the “DPH Antiport Ratio” value in the data set on H + OC antiporter [2] stood at 0.53. In the data set with H + OC antiporter [3], the “MDAI Antiport Ratio” value is given as 0.22.

Turning to `CCC1(c2cccc(O)c2)CCCCN(C)C1` (centres unmarked) [Meptazinol], in the data set on H + OC antiporter [1], the Km came to 1460 µM and the Vmax is listed as 15,759 pmol × mg Protein^−1 × min^−1.

As for `CN[C@@H](C)[C@H](O)c1ccccc1` [Ephedrine], in the data set with H + OC antiporter [1], the Km was determined as 33.5 µM.

Regarding `CN(C)CCCC1(c2ccc(F)cc2)OCc2cc(C#N)ccc21` (centres unmarked) [Citalopram], the Km is 12.9 µM in the data set with H + OC antiporter [1] and under 30 µM with H + OC antiporter [1] (listed as citalopram). For the same molecule, in the data set with H + OC antiporter [1], the Vmax is 838 pmol × mg Protein^−1 × min^−1.

Consider `CN(C)CCC=C1c2ccccc2CCc2ccccc21` [Amitriptyline], for which, in the data set on H + OC antiporter [1], the Michaelis constant (Km) is 286 µM and the Vmax is given as 8752 pmol × mg Protein^−1 × min^−1.

For `CN(C)CCC[C@@]1(c2ccc(F)cc2)OCc2cc(C#N)ccc21` [Escitalopram], in the data set on H + OC antiporter [1], the Km came to 47 µM and the Vmax is listed as 2356 pmol × mg Protein^−1 × min^−1.
